Experimental data from a collection of fitness landscapes (doi:10.1126/science.1257360).
This is one part of the list.

B1: PhoQ; a variant is named by its letters at X, in order, P23837 (parent)
chain: MKKLLRLFFPLSLRVRFLLATAAVVLVLSLAYGMVALIGYSVSFDKTTFRLLRGESNLFYTLAKWENNKLHVELPENIDKQSPTMTLIYDENGQLLWAQRDVPWLMKMIQPDWLKSNGFHEIEADVNDTSLLLSGDHSIQQQLQEVREDDDDAEMTHSVAVNVYPATSRMPKLTIVVVDTIPVELKSSYMVWSWFIYVLSANLLLVIPLLWVAAWWSLRPIEALAKEVRELEEHNRELLNPATTRELTSLVRNLNRLLKSERERYDKYRTTLTDLTHSLKTPLXXLQXXLRSLRSEKMSVSDAEPVMLEQISRISQQIGYYLHRASMRGGTLLSRELHPVAPLLDNLTSALNKVYQRKGVNISLDISPEISFVGEQNDFVEVMGNVLDNACKYCLEFVEISARQTDEHLYIVVEDDGPGIPLSKREVIFDRGQRVDTLRPGQGVGLAVAREITEQYEGKIVAGESMLGGARMEVIFGRQHSAPKDE

Variants of: B1
Assay: enrichment ratio after two sorts for PhoP signalling (ratio (wild type AVST 3.29)); higher = more functional
Conditions: with PhoP (E. coli)

Variant | enrichment ratio
GHTC | ≤ 0.25
MWNA | ≤ 0.25
GQTC | ≤ 0.25
LCSI | ≤ 0.25
YNLI | 3.53
SNIH | ≤ 0.25
GWQP | ≤ 0.25
YCPP | ≤ 0.25
FECA | ≤ 0.25
YHDA | ≤ 0.25
GAKP | ≤ 0.25
PPVT | ≤ 0.25
MSNK | ≤ 0.25
HWDD | ≤ 0.25
VQNS | ≤ 0.25
KRML | ≤ 0.25
FQSK | ≤ 0.25
WTYG | ≤ 0.25
MDPM | ≤ 0.25
FFYY | ≤ 0.25
NKGF | ≤ 0.25
WMHW | ≤ 0.25
SNRV | ≤ 0.25
KDII | ≤ 0.25
LLWE | ≤ 0.25
RDAE | ≤ 0.25

Variant | enrichment ratio
MRQM | ≤ 0.25
MIFQ | 9.72
PQKR | ≤ 0.25
LWYY | ≤ 0.25
TVGL | 8.95
VPYE | ≤ 0.25
NGQL | ≤ 0.25
VCPY | ≤ 0.25
QHLD | ≤ 0.25
AQQF | ≤ 0.25
IDDF | ≤ 0.25
KYPM | ≤ 0.25
SINN | 5.42
TDNI | ≤ 0.25
RFIT | ≤ 0.25
TYQA | ≤ 0.25
EDAT | 4.61
DYRR | ≤ 0.25
WNYR | ≤ 0.25
RRQT | ≤ 0.25
DQYA | ≤ 0.25
KERM | ≤ 0.25
ARFG | ≤ 0.25
NHLA | ≤ 0.25
NEHG | ≤ 0.25
MMPH | ≤ 0.25

Variant | enrichment ratio
HNQF | ≤ 0.25
EGLQ | ≤ 0.25
YDFI | ≤ 0.25
SRWR | ≤ 0.25
HWDH | ≤ 0.25
VPSD | ≤ 0.25
EDVG | ≤ 0.25
GQLS | 8.7
GPKA | ≤ 0.25
SVDR | ≤ 0.25
KCYI | ≤ 0.25
VRSS | ≤ 0.25
DAEE | ≤ 0.25
TFND | ≤ 0.25
HAMG | ≤ 0.25
YQMG | 0.271
SFMK | ≤ 0.25
SHYM | 0.284
TKTK | ≤ 0.25
QTYG | ≤ 0.25
KMPN | ≤ 0.25
MCYT | 2.07
PSWM | 0.304
SIMG | 13.2
TPHC | ≤ 0.25
LSKH | ≤ 0.25

Variant | enrichment ratio
KKNL | ≤ 0.25
DDRT | ≤ 0.25
IWSG | 0.954
FTNR | ≤ 0.25
WPII | ≤ 0.25
GQPQ | ≤ 0.25
KGFM | ≤ 0.25
ANMF | 0.299
FYVA | ≤ 0.25
GQCP | ≤ 0.25
VAPH | ≤ 0.25
PGTH | ≤ 0.25
FTQE | ≤ 0.25
THTY | 1.96
WVSP | 0.56
AMIN | ≤ 0.25
LKET | ≤ 0.25
KYMM | ≤ 0.25
GVLA | 4.95
AVAA | ≤ 0.25
CSSL | 2.98
TMCI | 12.4
MFVY | ≤ 0.25
IDRA | ≤ 0.25
FRTF | ≤ 0.25
EDIS | ≤ 0.25

Variant | enrichment ratio
LLST | ≤ 0.25
IQMW | ≤ 0.25
QPTN | ≤ 0.25
GIQK | ≤ 0.25
NRKI | ≤ 0.25
GWLG | ≤ 0.25
MNMK | ≤ 0.25
DQPI | ≤ 0.25
ICSA | ≤ 0.25
YHMF | ≤ 0.25
WRHH | ≤ 0.25
SLVY | ≤ 0.25
YDIE | 3.39
IETV | ≤ 0.25
SKEP | ≤ 0.25
NSFT | ≤ 0.25
VWKR | ≤ 0.25
PVQD | ≤ 0.25
NLNR | ≤ 0.25
MTTT | ≤ 0.25
NFYA | ≤ 0.25
LWKI | ≤ 0.25
FHAV | ≤ 0.25
HTFH | ≤ 0.25
FDGH | ≤ 0.25
DEGW | ≤ 0.25

Variant | enrichment ratio
HKKD | ≤ 0.25
GGWH | ≤ 0.25
YQQC | ≤ 0.25
KHRF | ≤ 0.25
TTHR | ≤ 0.25
GIDS | ≤ 0.25
NLDD | ≤ 0.25
RNIH | ≤ 0.25
ENDD | ≤ 0.25
HGLF | 9.46
DRMN | ≤ 0.25
CVHP | ≤ 0.25
LHTQ | ≤ 0.25
FFSP | ≤ 0.25
YRKN | ≤ 0.25
SDKQ | ≤ 0.25
SSSM | 14.8
ECRC | ≤ 0.25
GIPQ | ≤ 0.25
VCDF | ≤ 0.25
NFLN | 0.688
CFFM | ≤ 0.25
VAFG | ≤ 0.25
